B1: tRNA (parent)
chain: CUCUCGGUAGCCAAGUUGGUUUAAGGCGCAAGACUUUAAUUUAUCACUACGAAAUCUUGAGAUCGGGCGUUCGACUCGCCCCCGGGAGAUUUUUUCCUCGAGCAA

Variants at the background level are over-represented here. Some results are limits rather than exact numbers.

In the RNAGym collection of RNA variant scans (doi:10.1101/gad.245936.114) one finds nonsense suppression data, which are given here for 83 variants.

Variants of B1 are the subject of the data set. Nature of the data set: nonsense suppression (GFP-seq) (ratio to wild type); higher = more function; SUP4oc tRNA, yeast GFP reporter sort-seq. The method in brief: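 Each variant's nonsense suppression (GFPSEQ) is a cell-share-weighted bin median GFP/RFP relative to the unmutated parent tRNA. Yeast with genome-integrated tRNA variants from a ~3% random-mutation library, a galactose-driven GFP ochre reporter and RFP were grown in raffinose/galactose medium with 80 mg/L adenine, then sorted into GFP/RFP bins for Illumina sequencing. Variants needed ≥100 reads and ≥30 cells.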
Take G28A A54U: the nonsense suppression is 1.1. Then C5A C27U C80G, with at most 0.026; and G32A G65A C81G, with at most 0.026; and A14U A30G C82G, with at most 0.026.

For U57C U71C G73C, the nonsense suppression was at most 0.026.

Regarding G26U C81G, the nonsense suppression is at most 0.026. Under A24U C27U U63C stands at most 0.026; under C5G G7C G19C A54G, at most 0.026; under C3U G32A C75G, at most 0.026. Under A33G U57C U70G A89G stands at most 0.026; under A9U G66A C68G, at most 0.026; under U4G A33G C34U G86C, at most 0.026.

Regarding G10A U71A G88U, the nonsense suppression is at most 0.026. Under A54U U63G stands 0.659. Under A31C U55G stands at most 0.026.

Take C68A U71G: the nonsense suppression is at most 0.026. Under A24C G28C U55C U70C U71C C75U stands at most 0.026; under C5U C11U C34A G85A, at most 0.026.

Turning to C3A C27A, the nonsense suppression is at most 0.026. Under C5U C12U stands at most 0.026; under C3U C12U A30U, at most 0.026; under U22G C81G, at most 0.026. Take C1G C3U A62G: the nonsense suppression is at most 0.026. Then C1A A24C A60C U63G C72G C77G, with at most 0.026; and G15C U35G C81G, with at most 0.026; and G59U A89G, with at most 0.026. For the variant A23G G61A A62C G66U A74C U76G, the nonsense suppression was at most 0.026. Under A60C U70A stands at most 0.026; under G28A G78C, 0.0938; under U4G G18U G25U G88C A89U, at most 0.026. Then C1A C80A C83A, with at most 0.026; and G15C A24C G28U G61U A74C G85U, with at most 0.026; and G10A A24G G26U A87C, with at most 0.026.

U17A C64A: the nonsense suppression is at most 0.026. Under U8C G84A stands at most 0.026. As to G15U A24U G86C, the nonsense suppression is at most 0.026. Then C34U C56U, with at most 0.026. Under G18U A31U C79G stands at most 0.026; under A9C G59A G66C A74G G85U G86U, at most 0.026.

For C11G A13C A23U C68G C72G G73A G78C G84A, the nonsense suppression is at most 0.026.

Regarding U17C C34A U63A U70C, the nonsense suppression was at most 0.026. Then U21G C29G A33C, with at most 0.026; and C34G G65C G67A, with at most 0.026. Turning to A14U G32U G61C, the nonsense suppression is at most 0.026.

Turning to G15C G61A C77G, the nonsense suppression was at most 0.026.

Take C11A A13C C29U C81U: the nonsense suppression is at most 0.026. Under U2G U8C U17C stands at most 0.026. Under U20A G61A U76A stands at most 0.026; under C5G C82G G88U, at most 0.026; under G19A C29A, at most 0.026. Then G7C G26A G78A, with at most 0.026; and C80G G85A, with at most 0.026; and C1G G15C C34U, with at most 0.026. C3U A9G G28U: the nonsense suppression is at most 0.026.

As to G6A G7U U21A A31C A89G, the nonsense suppression was at most 0.026.

On to G7U C68A C75U, for which the nonsense suppression is at most 0.026. Then G7U G59U U71C, with at most 0.026; and U17G U21C C27A C56U, with at most 0.026; and U63A U71A G84C, with at most 0.026. Then U17A C29G A74U U76G, with at most 0.026. As for G15A U20G, the nonsense suppression was 0.189. Under C3G G15C U58G G88C stands 0.344. Then U17A C27G, with at most 0.026; and G7A A13U U58G G86C, with at most 0.026; and G10U A23G C34G A62C G69C, with at most 0.026. Then U57G G61C G69C, with at most 0.026; and A31G G65A G88U, with at most 0.026; and A9G U16C G18U, with at most 0.026.

Regarding G66C U71G, the nonsense suppression was at most 0.026. Then C12U A24G G28U, with at most 0.026; and G10U A13U U21A, with at most 0.026. Consider C29A U35A G84A, for which the nonsense suppression was at most 0.026. Then A23C A30G C81A A87G, with at most 0.026; and C11U C29U C77A, with at most 0.026; and A9U C80G, with at most 0.026.

For the variant U58C U63G G84A G86A, the nonsense suppression is at most 0.026.

G67U G84C: the nonsense suppression was at most 0.026. As to A9C U16G G88A, the nonsense suppression is at most 0.026.

Turning to A30C G32A U76G, the nonsense suppression was at most 0.026. Then C79U, with 0.879; and C1G G6C U8C U57G G67A G88C, with at most 0.026. Then A13U, with 1.03.

In the case of U2A A89G, the nonsense suppression is at most 0.026.
